Measured values published in the RNAGym collection of RNA variant scans (doi:10.1093/nar/gkz1192).
Read counts are not given, so values of variants with three or more changes are uncertain.

B1: CPEB3 Ribozyme (parent)
chain: UAACAGGGGGCCACAGCAGAAGCGUUCACGUCGCAGCCCCUGUCAGAUUCUGGUGAAUCUGCGAAUUCUGCUGUAUAUCUC

Variants of: B1
Assay: self-cleavage, relative activity (ratio to wild type); higher = more cleavage; in vitro, sequencing
In short: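 After error-prone PCR and barcoding, CPEB3 ribozyme mutant libraries were transcribed with T7 RNA polymerase at 37°C for 5 hours, then given 15 min with DNase I before an EDTA stop, and they cleaved during both steps. Reverse transcription with template switching preceded Illumina sequencing. Relative activity divides a variant's cleaved/total read fraction by the unmutated ribozyme's. At least 5 reads were required per variant, and three batches were averaged.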

For UAACAGGGGGCCACAGCGGAAGCGUUCGCGUCGCAGCCCCGGUCAGAUUCUGGUGAAUCUGCGAAUUCUGCUGUAUAUCUC [A18G A28G U41G], which self-cleavage is on record?
The self-cleavage was 0.23.

With UAACAGGGGGCCACAGCGGAGGCGUUCACGUCGCAGCCCCUGUCAGAUUCUGGUGAAUCUGCGAGUACUGCUGUAUAUCUC [A18G A21G A65G U67A] as the variant, how does the self-cleavage read?
Its self-cleavage is 0.06.

Which self-cleavage does the source give for UAACAGGGGGCCACAGCGGAGGCGUUCACGUCGCAGCCCCUGUCAGAUUCUGGUGAAUCUGCGAAUUCCGCCGUAAAUCUC [A18G A21G U69C U72C U76A] here?
Its self-cleavage is 1.1.

With UAACAGGGGGCCACAGCGGAUGCGUUCACGUCGUAGCCCCUGCCAGAUUCUGGUGAAUCUGCGAAUUCUGCUGAAUAUCUC [A18G A21U C34U U43C U74A] as the variant, how does the self-cleavage read?
The self-cleavage was 0.23.

Which self-cleavage does the source give for UAACAGGGGGCCACAGCGGAAGCGUUCCCGUCGCAGCCCCUGUCAGAUUCUGGUGAAUCUGCGAAUUCUGCUGUAAAUCUC [A18G A28C U76A] here?
Its self-cleavage is 0.24.

Which self-cleavage does the source give for UAACAGGGGGCCACAGCGGUAGCGUUCACGUCGCAGCCCCUGUCAGAUUCUGGUGAAUCAGCGAAUUCUGCUGUAUAUCUC [A18G A20U U60A] here?
Its self-cleavage is 0.2.

For UAACAGGGGGCCACAGCGGAAGCGUUCGCGUCGCAGCCCCUGUCAGAUUCUGGAGAAUCUGCGAAUACUGCUGUAUAUCUC [A18G A28G U54A U67A], which self-cleavage is on record?
The self-cleavage was 0.14.

For UAACAGGGGGCCACAGCGGAGGCGUUCACGUCGCAGCCCCUGUCAGAUUCUGGUAAAUCUGCGAGUUCUGCUGUAUAUCUC [A18G A21G G55A A65G], which self-cleavage is on record?
Its self-cleavage is 0.12.

For UAACAGGGGGCCACAGCGGAGGCGAUCACGUCGCAGCCCCUGUCAGAUUCUGGUGAAUCUGCGAAUUCUCCUGUAUAUCUC [A18G A21G U25A G70C], which self-cleavage is on record?
The self-cleavage was 0.1.

For UAACAGGGGGCCACAGCGGAAGCGUUCCCGCCGCAGCCCCUGUCAGAUUCUGGUGAAUCUGCGAAUUCUGCUGUAUAUCUC [A18G A28C U31C], which self-cleavage is on record?
The self-cleavage was 0.22.

Which self-cleavage does the source give for UAACAGGGGGCCACAGCGGAGGCGCUCACGUCGCGGCCCCUGUCGGAUUCUGGUGAAUCUACGAAUUCUGCCGUAUAUCUC [A18G A21G U25C A35G A45G G61A U72C] here?
The self-cleavage was 0.05.

For UAACAGGGGGCCACAGCGGAAGCGUUCGCGUCGCAGCCCCUGUCAGAUUCUGGUGAAUCUGCGAAUUCUGCUGUAUUUCUC [A18G A28G A77U], which self-cleavage is on record?
The self-cleavage was 0.15.

Which self-cleavage does the source give for UAACAGGGGGCCACAGCGGAUGCGUUCACGUCGCAGCCCCUGUCAGACUCUGGUGAAUCUGCGAAUUCUGCUGUAUAUCAC [A18G A21U U48C U80A] here?
The self-cleavage was 0.18.

For UAACAGGGGGCCACAGCGGACGCGUCCACGUCGCAGCCCCAGUCAGAUUCUGGUGGACCUGCGAAUUCAGCUGUAUAUCUC [A18G A21C U26C U41A A56G U58C U69A], which self-cleavage is on record?
The self-cleavage was 0.11.

With UAACAGGGGGCCACAGCGGAAGCGUUCCCGUCGCAGCCCCUGUCAGAUCCUGGUGAAUGUGCGAAUUCUGCUGUAUAUCUC [A18G A28C U49C C59G] as the variant, how does the self-cleavage read?
The self-cleavage was 0.06.

With UAACAGGGGGCCACAGCGGAAGCGUUCCCGUCGCAGCCCCUGACAGACUCUGGCGAAUCUGCGAAUUCUGCUGUAUAUCAC [A18G A28C U43A U48C U54C U80A] as the variant, how does the self-cleavage read?
The self-cleavage was 0.01.

Which self-cleavage does the source give for UAACAGGGGGCCACAGCGGAGGCGUUCACGUCGCAGCCCUCGUCAGAUUCUGGUGAAUCCGCGAAUUCUGCUGUAUAUCAC [A18G A21G C40U U41C U60C U80A] here?
The self-cleavage was 0.22.

With UAACAGGGGGCCACAGCGGAUGCGUUCACAUCGCAGCCCCUGUCCGAUUCUGGUGAAUCUGCGAAUUCUGCUGUAUAUCUC [A18G A21U G30A A45C] as the variant, how does the self-cleavage read?
The self-cleavage was 0.08.

Which self-cleavage does the source give for UAACAGGGGGCCACAGCGGAAGCGUUCGCGUCGCAGCCCCUGUCAGAUUCUGGUGAGUCUGCGAAUUCUGCUGUAUAUCUC [A18G A28G A57G] here?
Its self-cleavage is 0.22.

Which self-cleavage does the source give for UAACAGGGGGCCACAGCGGAUGCGUUCAUGUCGCUGCCCCUGUCAGAUUCCGGUGAAUCUGCGAAUUCUGCUGUAUAUCUC [A18G A21U C29U A35U U51C] here?
Its self-cleavage is 0.22.

For UAACAGGGGGCCACAGCGGAGGCGUUCGCGUCGCAGCCCCUGUCAGAUUCUGGUGGAUCUGCGAAUUCUGCUGUAUAUCUC [A18G A21G A28G A56G], which self-cleavage is on record?
The self-cleavage was 0.15.

For UAACAGGGGGCCACAGCGGAGGCGUUCACGUCGCUGCCCCUGUCAGAUUCUGGUGAAUCUGCGAUUUCUGCUGUAUAUCUC [A18G A21G A35U A65U], which self-cleavage is on record?
Its self-cleavage is 0.14.

With UAACAGGGGGCCACAGCGGAGGCGUUCACGUCGCAGCCCCUGUCAGAUUCUGGUGAAUCUGCGAAUUCUGCUGUAUGUCAC [A18G A21G A77G U80A] as the variant, how does the self-cleavage read?
The self-cleavage was 0.58.

With UAACAGGGGGCCACAGCGGAGGCGUCAGCGUCGCAGCCCCUGUCAGAUUCUGGCGAAUCUGCGAAUUCAGCUGUAUAUCUC [A18G A21G U26C C27A A28G U54C U69A] as the variant, how does the self-cleavage read?
Its self-cleavage is 0.12.

For UAACAGGGGGCCACAGCGGAGGCGUUCACGUCGCAGCCCCUGUCAGAUUCUGGUGAAUCUGCUAAUUCUGCUGUAUACCUC [A18G A21G G63U U78C], which self-cleavage is on record?
The self-cleavage was 0.49.

For UAACAGGGGGCCACAGCGGAAGCGUUCGCGUCGCAGCCCCAGUCAGAUCCUGGUGAAUCUGUGAAUUCUGCUGUAUAUCUC [A18G A28G U41A U49C C62U], which self-cleavage is on record?
The self-cleavage was 0.05.

Which self-cleavage does the source give for UAACAGGGGGCCACAGCGGAGGAGUUCACGUCGCAGCCCCUGUCAGAUUCUGGUGGAUCUGCGAACUCUGCUGUAUAUCUC [A18G A21G C23A A56G U66C] here?
The self-cleavage was 0.1.

With UAACAGGGGGCCACAGCGGAGGCGUUAACGUCGCAGCCCCUGUCAGAUUCUGGUGAAUCUGCGAAUUCUGCUGUAUAUCUC [A18G A21G C27A] as the variant, how does the self-cleavage read?
Its self-cleavage is 0.28.

With UAACAGGGGGCCACAGCGGAUGCGUUCGCGUCGCAGCCCCAGUCAGAUUCUGGUGAAUCUGUGAAUUCUGCUGUAUAUCCC [A18G A21U A28G U41A C62U U80C] as the variant, how does the self-cleavage read?
The self-cleavage was 0.05.

For UAACAGGGGGCCACAGCGGAGGCGUUCACGUCGCAGCCCCUGUCAGAUUCUGGUGAAUCUGCGAAUUCUCCUGUAUAUCUC [A18G A21G G70C], which self-cleavage is on record?
Its self-cleavage is 0.19.

With UAACAGGGGGCCACAGCGGAGGCGUUCACGUCGCAGCCCCUGUCAGAUUCUAGUGAAUCUGCGAAUUCUGCUGUAUAUCUC [A18G A21G G52A] as the variant, how does the self-cleavage read?
Its self-cleavage is 0.35.

For UAACAGGGGGCCACAGCGGAAGCGUUCGCGACGCAGCCCCUGACAGAUUCUGGUGAGUCUGCGAAUUCUGCUGCAUUUCUC [A18G A28G U31A U43A A57G U74C A77U], which self-cleavage is on record?
Its self-cleavage is 0.2.

With UAACAGGGGGCCACAGCGGAGGCGUUCACGUCGCGGCCCCUGUCAGAUUCUGGUGAAUCUGCGAAUUCCGCUGUAUAUCUC [A18G A21G A35G U69C] as the variant, how does the self-cleavage read?
The self-cleavage was 1.19.

For UAACAGGGGGCCACAGCGGUAGCGUUCACGUCGCAGCCCCUGUCAGAUACUGGUGAAUCUGCGAAUUCUGCUGUAUAUCUC [A18G A20U U49A], which self-cleavage is on record?
The self-cleavage was 0.34.
